The other results are listed elsewhere or left out.
T1: UNK ZnF1-3 (human, UniProt Q9C0B0 31-174)
T1 sequence: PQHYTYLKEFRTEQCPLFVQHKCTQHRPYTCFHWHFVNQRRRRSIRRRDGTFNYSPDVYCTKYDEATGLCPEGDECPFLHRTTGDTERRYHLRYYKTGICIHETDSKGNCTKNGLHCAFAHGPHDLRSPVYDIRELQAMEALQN

B1: chr19:12019223:12019224:+_ENSMUSG00000046139_ENSMUST00000061618|mus_mus|FALSE|FALSE (ssRNA)
RNA: GGGAGUUCUACAGUCCGACGAUCUGUGAAGGGAAGGUAGGAAAGGCUCAGUGGAGACAGUCAGUAGAUGGUAGAAGGAAGCUAGGGACUGUCACUGGGGAGCAGCUGGUGGAGCCCGAGGCCACAAAAUGAGAAGAAAUGGAGCAACAGAGGAUUGAGCAUCA
B2: chr3:157717571:157717572:+_ENSMUSG00000063052_ENSMUST00000156597|mus_mus|FALSE|FALSE (ssRNA)
RNA: GGGAGUUCUACAGUCCGACGAUCUCUUGAGUUCCUUUAGCUAUAAUUUCUCUUCGAAUGGUUCUUAGAGGAUUUCCUUCUAGUGCCAGGAAUUUCAAAUGAAGAUUUCCCAAUGAGCAGGGCAGACUACUAAUAUCAUUGUUGCAACAGAGGAUUGAGCAUCA
B3: chr6:160200703:160200704:-_ENSG00000120438_ENST00000392168|hu_mus|FALSE|FALSE (ssRNA)
RNA: GGGAGUUCUACAGUCCGACGAUCGUGAAAAGCUCUUAACUUGGCAACCAGGUCGGUGGAGUCCUGGGCAGCAUUCACUGCCAGUGUAUUAGGAAUCACAAGCAGAGAUCUUGCAAACUCUGCAAUAGCAAGCUGUUCCCGAGACAACAGAGGAUUGAGCAUCA
B4: 23958445_23958565_7413_CDS_ENSMUSG00000039218_ENSMUST00000088621|mouse|control|control (ssRNA)
RNA: GGGAGUUCUACAGUCCGACGAUCUGAUGAAGAGGAGGAGGAGCUAGAUGAUGAUGAAGAGGAGGAAGAGCUCCGACGUUCCUUAGCUGGUUGCAGAGCAGCCAAUGUAGAAGGCUGCUGGGCCCCAGUAGAGGCAGGUGGCUCCAACAGAGGAUUGAGCAUCA
B5: 19451973_19452093_1365_CDS_ENSMUSG00000057551_ENSMUST00000079042|mouse|control|control (ssRNA)
RNA: GGGAGUUCUACAGUCCGACGAUCAUAGUGUCUCUCCUGAGUGUGAAUCUUCCUGUGUGCAGUGAGGUUGGAACUAGCACUGAAGGCUUUGCCGCAGAGAUCACAGCCAUAAGGUCUCUCCCCAGUGUGAGAGUUCAUGUGUGUCAACAGAGGAUUGAGCAUCA
B6: 30947562_30947682_694_CDS_ENSMUSG00000037029_ENSMUST00000062181|mouse|control|control (ssRNA)
RNA: GGGAGUUCUACAGUCCGACGAUCGAGUUUCCCACAUACCUUACAGGCAAAGGGGCUUCCCCCGCUUAAGAUUCUCUGCUGGCUGAGCUGUGACAUCUGAGUGGAAGAGUGAUCUCAUUCACAGCGCUUCUCUGCAAUAGGGAACAACAGAGGAUUGAGCAUCA
B7: chrX:132781199:132781200:+_ENSMUSG00000042712_ENSMUST00000048687|mus_mus|FALSE|FALSE (ssRNA)
RNA: GGGAGUUCUACAGUCCGACGAUCAUGAAAAGAAAGCUAGAUCGCAAUGGUAACAUCAGAUAAAAGGGAAAGCAAGCCAAGCUACAUUAAAUAGGGGUAAGGAUGGCUUCGGUUAGCCUUCCAACGCGUCACUAUAAGUUUGUUCAACAGAGGAUUGAGCAUCA
B8: chr18:47008509:47008510:-_ENSG00000177576_ENST00000318240|hu_hu|FALSE|FALSE (ssRNA)
RNA: GGGAGUUCUACAGUCCGACGAUCCUGGCACAAACCUUCUAUUUAAUCAUAUUAUUCAAACAGCAAUAACAGAAAUGAAAGCUACAUUAACGAAAAAGGAACUUAGGAAUGAGGUCAUUAAAUAUAACUAACUACAUUUUAAAUCAACAGAGGAUUGAGCAUCA
B9: chrX:140365796:140365797:-_ENSMUSG00000031285_ENSMUST00000033642|mus_mus|mus_mus_mus_hu_False|1_18 (ssRNA)
RNA: GGGAGUUCUACAGUCCGACGAUCCUUCUCAUUACUCAGUGCCUGCAAGGUUCUGGUUCGGUAGAAGCUACAGUGGGCGCUGUGAGUGGGGCUAGGCAACCCAUUCAUCCGGGAGCCUCUCAUAUUUCUGGAUGUCUUGUCUCGCAACAGAGGAUUGAGCAUCA
B10: chr8:86505109:86505110:+_ENSMUSG00000005469_ENSMUST00000005606|mus_hu|FALSE|FALSE (ssRNA)
RNA: GGGAGUUCUACAGUCCGACGAUCCUUGUGUUUCACCAGCAUCACCCGCCCGAAGGAGCCCGUGCCGAGGGUCUUGAUUCGUUCAAACUGAUCCAAGUGGGCUGUGUUCUGAGCGGGACUUUCCCAUUUUUUAAGAAAAUCUUCCAACAGAGGAUUGAGCAUCA
B11: chr2:155211079:155211080:+_ENSMUSG00000038375_ENSMUST00000043237|mus_hu|FALSE|FALSE (ssRNA)
RNA: GGGAGUUCUACAGUCCGACGAUCGAGGCUGGAGAGGCGCUGGAACAUGGUGGGGGGCGAAGCGCCUCACGGGGGCGCCCUAUGGCAGUGCAAAAACCUCUCUGUGAUCCAAACAGCUGGGAGGCAGCGAUUUUAUUGGACUCUCAACAGAGGAUUGAGCAUCA
B12: chr7:44244176:44244177:+_ENSG00000106636_ENST00000223369|hu_mus|hu_hu_hu_mus_False|58_88 (ssRNA)
RNA: GGGAGUUCUACAGUCCGACGAUCACUGUCGCUCCGGACGUAGACAUGGCACAGAUACUCUUGUUCUUUGACAGAAGCUCUAGUGCCUUUCCCCGAGCGUUCCACAAUCAGUUGACUUGUAAAGGUCAUGAAUUCCUGCACACUCAACAGAGGAUUGAGCAUCA
B13: 160265871_160267184_2501_CDS_ENSG00000122218_ENST00000241704|human|control|control (ssRNA)
RNA: GGGAGUUCUACAGUCCGACGAUCUGUCUCCUUUAGGCUCUCAGCUUCUUCAUCUAAGCCAUGGGUAGCAGCUGUGAGAUAGGCCAGGGACUUCUGUCCACAGUUCUUCAGGAUCCGCACACGCUCUGACACAUCACCCAGGUACAACAGAGGAUUGAGCAUCA
B14: 32524532_32524652_2074_3pUTR_ENSG00000091317_ENST00000205636|human|control|control (ssRNA)
RNA: GGGAGUUCUACAGUCCGACGAUCUAAAAAUAAUCAUAUGCCAACAGGGGAAUUGAACCACUUUCUAAAUCAUAGUAUGAACUCAUCUCUUCAGAUACUUGGUAAGUGGUCAAAGCUUGUUUUUAUAAUUACUUUCACUGUCUUCAACAGAGGAUUGAGCAUCA

Target: T1, UNK ZnF1-3
Experiment: nsRBNS (natural sequence RNA bind-n-seq); RBNS binding buffer (assumed for nsRBNS): 25 mM Tris pH 7.5, 150 mM KCl, 3 mM MgCl2, 0.01% Triton X-100, 500 ug/ml BSA, 20 U/ml SUPERase-In, 4 C; UNK is unkempt and MSI1 is Musashi-1; names of the RNAs are library labels; protein concentration not given here; high values mean tight binding

In order of rising binding signal:
1. B12  0.505 enrichment R
2. B10  0.625 enrichment R
3. B9  0.698 enrichment R
4. B5  0.813 enrichment R
5. B6  0.877 enrichment R
6. B3  0.939 enrichment R
7. B2  0.953 enrichment R
8. B13  0.982 enrichment R
9. B11  1.15 enrichment R
10. B7  1.25 enrichment R
11. B8  1.44 enrichment R
12. B4  1.95 enrichment R
13. B1  2.02 enrichment R
14. B14  2.28 enrichment R

Source: PMC12136788
